# In patent US20130184251A1, “HETEROAROMATIC AND AROMATIC PIPERAZINYL AZETIDINYL AMIDES AS MONOACYLGLYCEROL LIPASE INHIBITORS” (Janssen Pharmaceutica, NV, priority 2009, published 2013):
# Several values for one entry are separate records, joined by “and”; a condition that tells them apart may be missing. Equal values may be shown once.
# Legend:
# [1] = molecular target: T1, purified mutant MGL (mut-MGLL 11-313 L179S L186S) (Homo sapiens, UniProt Q99685, L169S/L176S); assay: biochemical; settings: Ex. 3 (mutant) IC50, mutant MGL (mut-MGLL 11-313 L179S L186S)
# T1 sequence (Q99685 1-303 L169S/L176S): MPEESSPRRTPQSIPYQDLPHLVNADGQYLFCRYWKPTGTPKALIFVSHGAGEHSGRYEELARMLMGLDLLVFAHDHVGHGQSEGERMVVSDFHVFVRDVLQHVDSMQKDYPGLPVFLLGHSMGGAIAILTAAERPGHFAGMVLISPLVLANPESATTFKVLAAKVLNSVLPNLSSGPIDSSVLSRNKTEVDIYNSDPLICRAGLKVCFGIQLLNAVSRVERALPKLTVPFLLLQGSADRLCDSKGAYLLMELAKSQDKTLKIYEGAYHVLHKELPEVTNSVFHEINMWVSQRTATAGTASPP
# [2] = molecular target: T1, purified mutant MGL (mut-MGLL 11-313 L179S L186S); assay: biochemical; settings: Ex. 4 Kd, ThermoFluor
Compound,IC50 [1],Kd [2]
"O=C(c1ccc(-c2ccccc2)cc1)N1CC([N+]2([O-])CCN(c3ncccn3)CC2)C1 [compound 69, 2-(4-[1-(Biphenyl-4-ylcarbonyl)azetidin-3-yl]-4-oxidopiperazin-1-yl}pyrimidine]",735 nM,1390 nM
"O=C(c1ccccc1)c1cccc(C(=O)N2CC(N3CCN(c4ccccn4)CC3)C2)c1 [compound 86, Phenyl(3-{[3-(4-pyridin-2-ylpiperazin-1-yl)azetidin-1-yl]carbonyl}phenyl)methanone]",3100 nM and 5300 nM,2380 nM and 10200 nM
"O=C(Cc1cccc(Oc2ccccc2)c1)N1CC(N2CCN(c3ccccn3)CC2)C1 [compound 109, 1-{1-[(3-Phenoxyphenyl)acetyl]azetidin-3-yl}-4-pyridin-2-ylpiperazine]",13300 nM,32300 nM
"O=C(/C=C/c1ccc2c(c1)CCN2C1CCCCC1)N1CC(N2CCN(c3ccccn3)CC2)C1 [compound 63, 1-Cyclohexyl-5-{(1E)-3-oxo-3-[3-(4-pyridin-2-ylpiperazin-1-yl)azetidin-1-yl]prop-1-en-1-yl}-2,3-dihydro-1H-indole]",518 nM,2500 nM
"Cc1ccc(-c2ccc(C(=O)N3CC(N4CCN(c5ccccn5)CC4)C3)o2)cc1 [compound 84, 1-(1-{[5-(4-Methylphenyl)furan-2-yl]carbonyl}azetidin-3-yl)-4-pyridin-2-ylpiperazine]",3160 nM,8330 nM
"O=C(c1cc2c(OCc3ccccc3)cccc2[nH]1)N1CC(N2CCN(c3ccccn3)CC2)C1 [compound 120, 4-(Benzyloxy)-2-{[3-(4-pyridin-2-ylpiperazin-1-yl)azetidin-1-yl]carbonyl}-1H-indole]",2780 nM,2940 nM
"O=C(c1ccc(C#Cc2ccccc2)o1)N1CC(N2CCN(c3ccccn3)CC2)C1 [compound 123, 1-(1-{[5-(Phenylethynyl)furan-2-yl]carbonyl}azetidin-3-yl)-4-pyridin-2-ylpiperazine]",3460 nM,3230 nM
"O=C(Cc1ccc(-c2ccccc2)cc1)N1CC(N2CCN(c3ccccn3)CC2)C1 [compound 88, 1-[1-(Biphenyl-4-ylacetyl)azetidin-3-yl]-4-pyridin-2-ylpiperazine]",4000 nM,7100 nM
"O=C(c1cnn(-c2ccccc2)c1)N1CC(N2CCN(c3ccccn3)CC2)C1 [compound 107, 1-{1-[(1-Phenyl-1H-pyrazol-4-yl)carbonyl]azetidin-3-yl}-4-pyridin-2-ylpiperazine]",12800 nM,11400 nM
"O=C(c1ccc(-c2cccc(C(F)(F)F)c2)cc1)N1CC(N2CCN(c3ncccn3)CC2)C1 [compound 4, 2-[4-(1-{[3′-(Trifluoromethyl)biphenyl-4-yl]carbonyl}azetidin-3-yl)piperazin-1-yl]pyrimidine]",6 nM,2 nM
"O=C(c1ccc(Oc2ccccc2)cc1)N1CC(N2CCN(c3ncccn3)CC2)C1 [Compound #20, 2-(4-{1-[(4-Phenoxyphenyl)carbonyl]azetidin-3-yl}piperazin-1-yl)pyrimidine]",23 nM,62 nM
"O=C(c1ccc(-c2ccccc2)cc1)N1CC(N2CCN(c3ccccn3)CC2)C1 [compound 42, 1-[1-(Biphenyl-4-ylcarbonyl)azetidin-3-yl]-4-pyridin-2-ylpiperazine]",104 nM,118 nM
"O=C(c1ccc(-c2ccccc2)o1)N1CC(N2CCN(c3ccccn3)CC2)C1 [compound 99, 1-{1-[(5-Phenylfuran-2-yl)carbonyl]azetidin-3-yl}-4-pyridin-2-ylpiperazine]",6100 nM,13000 nM
"COc1ccc(-c2ccc(C(=O)N3CC(N4CCN(c5ccccn5)CC4)C3)o2)cc1 [compound 92, 1-(1-{[5-(4-Methoxyphenyl)furan-2-yl]carbonyl}azetidin-3-yl)-4-pyridin-2-ylpiperazine]",> 5000 nM,4550 nM
"O=C(c1ccc(C2CCCCC2)cc1)N1CC(N2CCN(c3nnc(C(F)(F)F)s3)CC2)C1 [compound 34, 1-{1-[(4-Cyclohexylphenyl)carbonyl]azetidin-3-yl}-4-[5-(trifluoromethyl)-1,3,4-thiadiazol-2-yl]piperazine]",55 nM,84 nM
"O=C1c2ccccc2-c2ccc(C(=O)N3CC(N4CCN(c5ccccn5)CC4)C3)cc21 [compound 59, 2-{[3-(4-Pyridin-2-ylpiperazin-1-yl)azetidin-1-yl]carbonyl}-9H-fluoren-9-one]",400 nM,2300 nM
"O=C(/C=C/c1ccc(SC(F)(F)F)cc1)N1CC(N2CCN(c3ccccn3)CC2)C1 [compound 41, 1-Pyridin-2-yl-4-{1-[(2E)-3-(4-[(trifluoromethyl)sulfanyl]phenyl}prop-2-enoyl]azetidin-3-yl}piperazine]",84 nM,395 nM

Compound,IC50 [1],Kd [2]
"COc1ccc2cc(C(=O)N3CC(N4CCN(c5ccccn5)CC4)C3)ccc2c1 [compound 57, 1-{1-[(6-Methoxynaphth-2-yl)carbonyl]azetidin-3-yl}-4-pyridin-2-ylpiperazine]",291 nM,577 nM
"O=C(c1ccc(OCc2ccccc2)cc1)N1CC(N2CCN(c3ncccn3)CC2)C1 [compound 111, 2-[4-(1-{[4-(Benzyloxy)phenyl]carbonyl}azetidin-3-yl)piperazin-1-yl]pyrimidine]",< 13 nM,14 nM
"Cc1ccc(C(=O)N2CC(N3CCN(c4ncccn4)CC3)C2)cc1I [compound 48, 2-(4-{1-[(3-Iodo-4-methylphenyl)carbonyl]azetidin-3-yl}piperazin-1-yl)pyrimidine]",162 nM,435 nM
"CC(C)n1c(C(F)(F)F)nc2cc(C(=O)N3CC(N4CCN(c5ncccn5)CC4)C3)ccc21 [compound 16, 1-(1-Methylethyl)-5-{[3-(4-pyrimidin-2-ylpiperazin-1-yl)azetidin-1-yl]carbonyl}-2-(trifluoromethyl)-1H-benzimidazole]",19 nM,21 nM
"O=C(c1ccc(Cl)c(I)c1)N1CC(N2CCN(c3ncccn3)CC2)C1 [compound 43, 2-(4-{1-[(4-Chloro-3-iodophenyl)carbonyl]azetidin-3-yl}piperazin-1-yl)pyrimidine]",104 nM,400 nM
"O=C(c1ccc(C2CCCCC2)cc1)N1CC(N2CCN(c3nc4ccccc4o3)CC2)C1 [compound 66, 2-(4-{1-[(4-Cyclohexylphenyl)carbonyl]azetidin-3-yl}piperazin-1-yl)-1,3-benzoxazole]",614 nM,1280 nM
"O=C(c1ccc2c(=O)c3ccccc3oc2c1)N1CC(N2CCN(c3ccccn3)CC2)C1 [compound 130, 3-{[3-(4-Pyridin-2-ylpiperazin-1-yl)azetidin-1-yl]carbonyl}-9H-xanthen-9-one]",653 nM,909 nM
"Cc1nc2cc(C(=O)N3CC(N4CCN(c5ncccn5)CC4)C3)ccc2n1-c1ccccc1 [compound 14, 2-Methyl-1-phenyl-5-{[3-(4-pyrimidin-2-ylpiperazin-1-yl)azetidin-1-yl]carbonyl}-1H-benzimidazole]",16 nM,12 nM
"N#Cc1cccnc1N1CCN(C2CN(C(=O)c3ccc(C4CCCCC4)cc3)C2)CC1 [Compound #21, 2-(4-{1-[(4-Cyclohexylphenyl)carbonyl]azetidin-3-yl}piperazin-1-yl)pyridine-3-carbonitrile]",24 nM,25 nM
"CC1(C)CCC(C)(C)c2cc(CCC(=O)N3CC(N4CCN(c5ccccn5)CC4)C3)ccc21 [compound 29, 1-Pyridin-2-yl-4-{1-[3-(5,5,8,8-tetramethyl-5,6,7,8-tetrahydronaphth-2-yl)propanoyl]azetidin-3-yl}piperazine]",37 nM,229 nM
"O=C(c1ccc(C2CCCCC2)cc1)N1CC(N2CCN(c3ccc(Br)cn3)CC2)C1 [compound 77, 1-(5-Bromopyridin-2-yl)-4-{1-[(4-cyclohexylphenyl)carbonyl]azetidin-3-yl}piperazine]",1370 nM,3030 nM
"CN(c1ccccc1)c1ccc(C(=O)N2CC(N3CCN(c4ccccn4)CC3)C2)cc1 [compound 18, N-Methyl-N-phenyl-4-{[3-(4-pyridin-2-ylpiperazin-1-yl)azetidin-1-yl]carbonyl}aniline]",21 nM,38 nM
"O=C(c1cccc2c1Cc1ccccc1-2)N1CC(N2CCN(c3ccccn3)CC2)C1 [compound 96, 1-[1-(9H-Fluoren-1-ylcarbonyl)azetidin-3-yl]-4-pyridin-2-ylpiperazine]",5600 nM,15200 nM
"O=C(c1ccc([N+](=O)[O-])cc1)N1CC(N2CCN(c3ncccn3)CC2)C1 [compound 94, 2-(4-{1-[(4-Nitrophenyl)carbonyl]azetidin-3-yl}piperazin-1-yl)pyrimidine]",5400 nM,4000 nM
"O=C(c1ccc2ccccc2n1)N1CC(N2CCN(c3ccccn3)CC2)C1 [compound 116, 2-{[3-(4-Pyridin-2-ylpiperazin-1-yl)azetidin-1-yl]carbonyl}quinoline]",8700 nM,6840 nM
"O=C(c1ccc(Cc2ccccc2)cc1)N1CC(N2CCN(c3ccccn3)CC2)C1 [compound 30, 1-{1-[(4-Benzylphenyl)carbonyl]azetidin-3-yl}-4-pyridin-2-ylpiperazine]",40 nM,333 nM
"O=C(c1ccc2c(c1)CCCN2c1cccc(C(F)(F)F)c1)N1CC(N2CCN(c3cccc(C(F)(F)F)c3)CC2)C1 [compound 135, 1-[3-(Trifluoromethyl)phenyl]-6-[(3-(4-[3-(trifluoromethyl)phenyl]piperazin-1-yl}azetidin-1-yl)carbonyl]-1,2,3,4-tetrahydroquinoline]",10800 nM,> 31200 nM
